The other results are listed elsewhere or left out.

The assay concerns the target T1, MBP-FoxP1dN (Mus musculus, UniProt P58462 326-579).
T1 sequence: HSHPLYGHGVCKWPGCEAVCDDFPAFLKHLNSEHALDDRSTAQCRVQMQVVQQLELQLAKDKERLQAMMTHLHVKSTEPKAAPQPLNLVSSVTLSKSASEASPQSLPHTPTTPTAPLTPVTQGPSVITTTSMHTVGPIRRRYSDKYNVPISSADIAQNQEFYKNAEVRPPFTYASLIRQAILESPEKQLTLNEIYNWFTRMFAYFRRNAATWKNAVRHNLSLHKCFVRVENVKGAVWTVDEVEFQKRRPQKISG
Nature of the assay: PD-seq (MBP pull-down with sequencing); 20 mM Tris-HCl pH 7.5, 100 mM NaCl, 1.5 mM MgCl2, 0.4 uM protein, 0.1 uM dsDNA library, 30 min, room temperature, amylose pull-down; high values mean tight binding. Conditions: protein: recombinant; tags: His6-MBP; chain copies: 2; dsDNA, one strand shown. Summed up:
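Binding is the reads-per-million enrichment of pull-down relative to input, pooled across replicates. For this, 0.4 µM His6-MBP-tagged mouse FoxP3 or FoxP1 fragment lacking the N-terminus, made in E. coli, was incubated with 0.1 µM Klenow-filled double-stranded degenerate DNA library for 30 min at room temperature in Tris pH 7.5 buffer with NaCl and MgCl2. Complexes bound to amylose resin were washed three times before proteinase K released the DNA for PCR barcoding and Illumina sequencing.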
“GATGATTGTTCTCCCAGCTGATGAATTCGCAGGCTCGAGTAAACAAATTTTCCTAATCTTTCTGTTCAAGCGCCATCTAC”: the binding signal is 0.738 RPM ratio (pull-down/input).

For the sequence “GATGATTGTTCTCCCAGCTGATGAATTGCCTTCCTCGAGTAAACAAATTTTCCTAATCTTTCTGTTCAAGCGCCATCTAC”, the binding signal is 0.941 RPM ratio (pull-down/input).

Turning to “GATGATTGTTCTCCCAGCTGATGAATTTGAACTCTCGAGTAAACAAATTTTCCTAATCTTTCTGTTCAAGCGCCATCTAC”, the binding signal is 0.756 RPM ratio (pull-down/input).

Regarding “GATGATTGTTCTCCCAGCTGATGAATTTAGGTGATCGAGTAAACAAATTTTCCTAATCTTTCTGTTCAAGCGCCATCTAC”, the binding signal is 1.02 RPM ratio (pull-down/input).

In the case of “GATGATTGTTCTCCCAGCTGATGAATTATAGGCCTCGAGTAAACAAATTTTCCTAATCTTTCTGTTCAAGCGCCATCTAC”, the binding signal was 0.956 RPM ratio (pull-down/input).

On to “GATGATTGTTCTCCCAGCTGATGAATTAGTACGTTCGAGTAAACAAATTTTCCTAATCTTTCTGTTCAAGCGCCATCTAC”, for which the binding signal is 1.01 RPM ratio (pull-down/input).

“GATGATTGTTCTCCCAGCTGATGAATTCCTACCTTCGAGTAAACAAATTTTCCTAATCTTTCTGTTCAAGCGCCATCTAC”: the binding signal was 0.834 RPM ratio (pull-down/input).

Turning to “GATGATTGTTCTCCCAGCTGATGAATTTGGTTACTCGAGTAAACAAATTTTCCTAATCTTTCTGTTCAAGCGCCATCTAC”, the binding signal was 1.01 RPM ratio (pull-down/input).

As to “GATGATTGTTCTCCCAGCTGATGAATTCGCACGCTCGAGTAAACAAATTTTCCTAATCTTTCTGTTCAAGCGCCATCTAC”, the binding signal was 0.915 RPM ratio (pull-down/input).

As to “GATGATTGTTCTCCCAGCTGATGAATTACTGACTTCGAGTAAACAAATTTTCCTAATCTTTCTGTTCAAGCGCCATCTAC”, the binding signal is 1.05 RPM ratio (pull-down/input).

Regarding “GATGATTGTTCTCCCAGCTGATGAATTTGGTTAATCGAGTAAACAAATTTTCCTAATCTTTCTGTTCAAGCGCCATCTAC”, the binding signal was 0.95 RPM ratio (pull-down/input).

Turning to “GATGATTGTTCTCCCAGCTGATGAATTACGCGAATCGAGTAAACAAATTTTCCTAATCTTTCTGTTCAAGCGCCATCTAC”, the binding signal was 1.04 RPM ratio (pull-down/input).

For the sequence “GATGATTGTTCTCCCAGCTGATGAATTGCTCAACTCGAGTAAACAAATTTTCCTAATCTTTCTGTTCAAGCGCCATCTAC”, the binding signal is 0.995 RPM ratio (pull-down/input).

Turning to “GATGATTGTTCTCCCAGCTGATGAATTCGGGCCATCGAGTAAACAAATTTTCCTAATCTTTCTGTTCAAGCGCCATCTAC”, the binding signal is 0.833 RPM ratio (pull-down/input).

In the case of “GATGATTGTTCTCCCAGCTGATGAATTTATGTACTCGAGTAAACAAATTTTCCTAATCTTTCTGTTCAAGCGCCATCTAC”, the binding signal was 1.69 RPM ratio (pull-down/input).

For “GATGATTGTTCTCCCAGCTGATGAATTTAACGTATCGAGTAAACAAATTTTCCTAATCTTTCTGTTCAAGCGCCATCTAC”, the binding signal was 1.02 RPM ratio (pull-down/input).

“GATGATTGTTCTCCCAGCTGATGAATTGACTACATCGAGTAAACAAATTTTCCTAATCTTTCTGTTCAAGCGCCATCTAC”: the binding signal was 1.22 RPM ratio (pull-down/input).

For “GATGATTGTTCTCCCAGCTGATGAATTATTATTGTCGAGTAAACAAATTTTCCTAATCTTTCTGTTCAAGCGCCATCTAC”, the binding signal is 3.2 RPM ratio (pull-down/input).

Take “GATGATTGTTCTCCCAGCTGATGAATTCCCTAGGTCGAGTAAACAAATTTTCCTAATCTTTCTGTTCAAGCGCCATCTAC”: the binding signal is 0.768 RPM ratio (pull-down/input).

Consider “GATGATTGTTCTCCCAGCTGATGAATTCATGTGCTCGAGTAAACAAATTTTCCTAATCTTTCTGTTCAAGCGCCATCTAC”, for which the binding signal is 0.954 RPM ratio (pull-down/input).

As for “GATGATTGTTCTCCCAGCTGATGAATTCTGGAAATCGAGTAAACAAATTTTCCTAATCTTTCTGTTCAAGCGCCATCTAC”, the binding signal is 0.932 RPM ratio (pull-down/input).

As to “GATGATTGTTCTCCCAGCTGATGAATTATACGTATCGAGTAAACAAATTTTCCTAATCTTTCTGTTCAAGCGCCATCTAC”, the binding signal was 1.09 RPM ratio (pull-down/input).

With “GATGATTGTTCTCCCAGCTGATGAATTGACGTTCTCGAGTAAACAAATTTTCCTAATCTTTCTGTTCAAGCGCCATCTAC”, the binding signal was 1.09 RPM ratio (pull-down/input).

Consider “GATGATTGTTCTCCCAGCTGATGAATTGGAGTAGTCGAGTAAACAAATTTTCCTAATCTTTCTGTTCAAGCGCCATCTAC”, for which the binding signal is 0.835 RPM ratio (pull-down/input).

Turning to “GATGATTGTTCTCCCAGCTGATGAATTAGGAGTTTCGAGTAAACAAATTTTCCTAATCTTTCTGTTCAAGCGCCATCTAC”, the binding signal is 0.859 RPM ratio (pull-down/input).

On to “GATGATTGTTCTCCCAGCTGATGAATTTGTCCATTCGAGTAAACAAATTTTCCTAATCTTTCTGTTCAAGCGCCATCTAC”, for which the binding signal is 1.09 RPM ratio (pull-down/input).

In the case of “GATGATTGTTCTCCCAGCTGATGAATTTTTCGCGTCGAGTAAACAAATTTTCCTAATCTTTCTGTTCAAGCGCCATCTAC”, the binding signal is 1.01 RPM ratio (pull-down/input).

With “GATGATTGTTCTCCCAGCTGATGAATTTAGATGATCGAGTAAACAAATTTTCCTAATCTTTCTGTTCAAGCGCCATCTAC”, the binding signal was 1.11 RPM ratio (pull-down/input).

For the sequence “GATGATTGTTCTCCCAGCTGATGAATTTTCGGCCTCGAGTAAACAAATTTTCCTAATCTTTCTGTTCAAGCGCCATCTAC”, the binding signal was 0.836 RPM ratio (pull-down/input).

Take “GATGATTGTTCTCCCAGCTGATGAATTTACTTGCTCGAGTAAACAAATTTTCCTAATCTTTCTGTTCAAGCGCCATCTAC”: the binding signal was 1.28 RPM ratio (pull-down/input).

As for “GATGATTGTTCTCCCAGCTGATGAATTACCTCCGTCGAGTAAACAAATTTTCCTAATCTTTCTGTTCAAGCGCCATCTAC”, the binding signal was 0.935 RPM ratio (pull-down/input).

The record behind these values is PMC12820563, “FoxP3 forms a head-to-head dimer in vivo and stabilizes its multimerization on adjacent microsatellites”.
